Results: PubChem BioAssay AID463173 (ICCB-Longwood Screening Facility, Harvard Medical School, 2010)
About 4,300 (8.3%) of roughly 52,000 compounds were called active. Rule as the data show it: active = survival mostly below about 52% (no sharp cut-off); inactive = mostly above about 56%. This is one part of the list.

The compounds below were run on DeltatarO mutant (assay: growth inhibition of S. aureus wild type versus tarO mutant, primary screen, teichoic acid synthesis inhibitors, RN4220, OD600 (AID 463173)). Conditions: OD600, 18 h, hits give low values, screened at 18.75 µg/mL (by protocol).

| Compound | survival |
| --- | --- |
| O=C1CC(c2nnc(Cc3cccc(Cl)c3)o2)CN1c1ccccc1 (stereo not given) | inactive: 126% |
| COc1cccc(-c2cc(C(=O)Nc3ccc(Br)c(C)c3)[nH]n2)c1 | inactive: 78% |
| Cc1ccc2c(c1)cc1c(=O)n(Cc3ccc(Cl)cc3)nc(C)n12 | inactive: 96% |
| COc1ccc(-n2c(=O)c3ccc(C(=O)NCc4ccc(C)cc4)cc3n(Cc3cccc(Cl)c3)c2=O)cc1 | inactive: 75% |
| CN(C)CCNc1ncnc2ccccc12 | inactive: 81% |
| Cc1oc(-c2ccc(C(=O)Nc3cccc(C(F)(F)F)c3)cc2)nc1CSc1ccccc1 | inactive: 90% |
| COc1ccc(Nc2nc3ccc(Cl)cc3n3nnnc23)cc1OC | inactive: 102% |
| CCc1nnc2c3ccccc3nc(Nc3ccccc3OC)n12 | inactive: 57% |
| Cc1cccc(N2CCN(S(=O)(=O)c3ccc4oc(=O)c5ncn(C)c5c4c3)CC2)c1C | inactive: 77% |
| O=C(CCCCn1c(=O)c2ccccc2n(CC(=O)Nc2ccccc2)c1=O)NCc1ccccc1Cl | inactive: 93% |
| Cc1c(C)n(Cc2ccccc2)c2ccc(C(=O)NCc3ccc(OC(C)C)cc3)cc12 | inactive: 115% |
| CCOC(=O)c1sc(NC(=O)C(C)Sc2nc(-c3ccccc3)cc(C(F)(F)F)n2)c(C(=O)OC)c1C (stereo not given) | inactive: 159% |
| Cc1ccc(NC(=O)c2cnc(N3CCCCC3)c3ccccc23)cc1Cl | inactive: 87% |
| Cc1n[nH]c(C)c1CCc1nc2c3ccccc3nc(SCC(=O)Nc3ccc(F)cc3)n2n1 | inactive: 115% |
| Cc1ccc(OCCn2cc(C(=O)c3ccco3)c3ccccc32)cc1C | active: 27% |
| CCCC(=O)C1=C(c2ccc(C)cc2)N(C(=O)CCC)n2cnnc2S1 | inactive: 130% |
| COc1cccc(-c2nc3cc(C)ccc3o2)c1 | inactive: 103% |
| COc1ccc(-c2nc3scc(CCNS(=O)(=O)c4ccc(F)c(C(F)(F)F)c4)n3n2)cc1OC | inactive: 88% |
| CCN1CCN(c2cc(C)c3cc(NC(=O)c4cccc(Cl)c4)ccc3n2)CC1 | active: 23% |
| c1ccc(-c2cc3ccsc3s2)cc1 | inactive: 99% |
| O=C(Oc1ccccc1Cl)c1cc(-c2ccc3c(c2)OCCO3)on1 | active: -2% |
| O=C1CN(c2ccccc2)C(=Nc2ccccc2)S1 | inactive: 61% |
| O=C(Nc1nnc(S(=O)(=O)N2CCCCC2)s1)c1ccc(F)cc1 | inactive: 79% |

| Compound | survival |
| --- | --- |
| Cc1cc(C)c(Cn2c3ccccc3c3cnn(CC(=O)NCc4ccc(Cl)cc4)c(=O)c32)c(C)c1 | inactive: 123% |
| CC1=C(C(=O)Nc2ccccc2C)C(c2ccco2)n2ncnc2N1 (stereo not given) | inactive: 101% |
| CCOc1ccc(NC(=O)c2cc(S(=O)(=O)N3CCCC3)c[nH]2)cc1 | inactive: 108% |
| Cc1noc(Cn2c(=O)c3ccccc3n(CC(=O)Nc3ccc(F)cc3F)c2=O)n1 | inactive: 88% |
| NC(=O)c1oc2ccccc2c1NC(=O)c1ccccc1 | inactive: 68% |
| Cc1ccc(CNC(=O)Cn2cc(S(=O)(=O)Cc3cccc(Cl)c3)c3ccccc32)cc1 | inactive: 85% |
| COc1ccc(NC(=O)COc2ccc(S(=O)(=O)NC3CCCCC3)cc2)c(OC)c1 | inactive: 66% |
| O=C(CCCc1nc(-c2ccccc2)no1)Nc1cc(C(F)(F)F)cc(C(F)(F)F)c1 | active: 19% |
| O=C(CSc1nc(-c2ccccc2)c2ccccc2n1)Nc1ccc(F)cc1 | inactive: 82% |
| CC1=C(C(=O)N2CCCCC2)C(c2cccc(Cl)c2)n2c(nc3ccccc32)N1 (stereo not given) | inactive: 64% |
| Cc1cc(C)c(S(=O)(=O)NCCc2cc3ccc(C)cc3[nH]c2=O)c(C)c1 | inactive: 66% |
| CCOc1ccc(CCNC(=O)c2ccc3c(c2)N(Cc2ccccc2)C(=O)c2ccccc2S3=O)cc1OCC (stereo not given) | inactive: 71% |
| O=C(CN(c1cc(C(F)(F)F)ccc1Cl)S(=O)(=O)c1ccccc1)NCCc1ccccc1 | inactive: 66% |
| COc1ccc(-c2c(C#N)c(SCC(=O)Nc3ccc(Br)cc3)nc(C)c2C(=O)Nc2ccccc2)cc1 | inactive: 95% |
| COC(=O)c1ccccc1NC(=O)c1cc2c(s1)-c1ccccc1OC2 | active: 39% |
| O=c1c(Cl)c(N2CCCCC2)cnn1C12CC3CC(CC(C3)C1)C2 | inactive: 95% |
| CC1CCN(S(=O)(=O)c2ccc3nc(NCc4ccc(F)cc4)ccc3c2)CC1 | inactive: 94% |
| CCn1nnc2cc(C(=O)Nc3ccc(C)cc3Br)ccc21 | inactive: 118% |
| CC(C)(C)OC(=O)N1CCC(c2nnc(SCc3ccccc3F)o2)CC1 | inactive: 57% |
| CCOc1ccc(CCNc2ncnc3onc(-c4ccc(Cl)cc4)c23)cc1 | inactive: 76% |
| COc1ccc(C)cc1NC(=O)C(=O)NCCc1csc2nc(-c3ccccc3F)nn12 | inactive: 72% |
| O=c1c2oc3ccccc3c2n(Cc2ccccc2)c(=O)n1Cc1ccco1 | inactive: 95% |
| Cc1nn2c(=O)cc(COC(=O)c3ccc(NC(=O)COc4ccc(Cl)cc4)cc3)nc2s1 | inactive: 107% |

| Compound | survival |
| --- | --- |
| CCN1C(=O)c2ccccc2S(=O)c2ccc(C(=O)N3CCN(c4ccccc4)CC3)cc21 (stereo not given) | inactive: 72% |
| Cc1ccc(S(=O)(=O)c2nnn3c2nc(N2CCC(C)CC2)c2cc(Cl)ccc23)cc1C | inactive: 78% |
| CCOC(=O)c1c(NC(=O)/C=C/c2ccc(OCC)c(OC)c2)sc2c1CCC2 | inactive: 56% |
| COc1cccc(CNC(=O)CCCN2C(=O)CSc3c2c(C)nn3-c2ccccc2)c1OC | inactive: 102% |
| CCc1ccccc1NC(=O)CN(c1ccc(OC)cc1)S(=O)(=O)c1c(C)n[nH]c1C | inactive: 74% |
| CCc1nnc(NC(=O)c2ccc(S(=O)(=O)N3CCCCC3C)cc2)s1 (stereo not given) | inactive: 65% |
| Cc1cccc(-c2nc3scc(CCNS(=O)(=O)c4ccc(F)cc4C)n3n2)c1 | inactive: 94% |
| Cc1ccc(NC(=O)c2cc(S(=O)(=O)NCCC3=CCCCC3)ccc2F)cc1C | active: 20% |
| COc1ccc(-c2csc(N(CC(C)C)C(=O)c3cccs3)n2)cc1 | inactive: 76% |
| Cc1oc(-c2ccccc2)nc1CNC(=O)NC1CCCCC1 | inactive: 89% |
| COc1ccc(Nc2sc(C(=O)c3ccccc3)c(N)c2C(=O)Nc2cc(C)ccc2C)c(OC)c1 | inactive: 95% |
| Cc1ccn2c(c1)nc(=O)c1cc(S(=O)(=O)N3CCCCC3)c(Cl)cc12 | inactive: 90% |
| CCc1ccc(NC(=O)c2sc3nc(C)c(C(=O)Nc4ccc(C)cc4C)c(-c4ccco4)c3c2N)cc1 | inactive: 81% |
| Cc1c(NC(=O)c2cc(-c3ccc(Br)cc3)on2)c(=O)n(-c2ccccc2)n1C | inactive: 51% |
| Cc1noc2ncnc(N3CCCC(C(=O)NC(C)C)C3)c12 (stereo not given) | inactive: 71% |
| Cc1ccc(Cl)cc1N1CCN(CCCNc2ncnc3onc(-c4ccc(Cl)cc4)c23)CC1 | inactive: 106% |
| COc1ccc(CCNC(=O)CSC2=Nc3ccccc3C3=NC(CCC(=O)NCc4ccccc4)C(=O)N23)cc1OC (stereo not given) | inactive: 107% |
| Cc1cccc(CCNC(=O)C2CCN(c3ncnc4c3nc3n4CCCCC3)CC2)c1 | inactive: 87% |
| Cc1cccc(NC(=O)CN2C(=O)c3ccccc3Sc3ncccc32)c1C | inactive: 90% |
| CCOC(=O)/C=C1\NC2(CCCC2)Cc2cc(OC)c(OC)cc21 | inactive: 97% |
| O=C(CCCc1ccccc1)NC1CCCC1 | inactive: 88% |
| CCn1c(NCc2ccc(OC)c(OC)c2)nc2ccccc21 | inactive: 116% |
| Cc1cccc2cc(CN(CC3CCCO3)C(=O)CC(C)(C)C)c3nnnn3c12 (stereo not given) | inactive: 73% |

| Compound | survival |
| --- | --- |
| CCCCCn1c(CCCNC(=O)c2cccc(C)c2)nc2ccccc21 | inactive: 51% |
| COc1ccc(NC(=O)c2ccc(NC(=O)CCS(=O)(=O)c3cccs3)cc2)cc1OC | inactive: 50% |
| CCOC(=O)c1cc(-c2ccccc2)n(CCC(=O)Nc2cc(OCC)ccc2OCC)c1C | inactive: 73% |
| CC(C)CNC(=O)C1C2C=CC(C2)C1C(=O)O (stereo not given) | inactive: 93% |
| Cc1ccc(C(=O)Nc2nc3ccc(S(=O)(=O)N4CCCC4)cc3s2)cc1 | inactive: 73% |
| Cc1ccc(-c2nnc(SCC(=O)NC3CCCC3)nc2-c2ccc(C)cc2)cc1 | inactive: 78% |
| COc1ccc(CN2C(=O)c3oc4ccc(F)cc4c(=O)c3C2c2ccc(O)cc2)cc1 (stereo not given) | inactive: 96% |
| CCOc1ccc(NC(=O)CCC(=O)N2CC(C)Oc3ccc(C)cc32)cc1 (stereo not given) | inactive: 67% |
| COc1ccc(C)cc1NC(=O)C1CCN(S(=O)(=O)c2c(C)noc2/C=C/c2ccco2)CC1 | inactive: 78% |
| COc1cccc(-n2c(-c3ccc(Cl)cc3)cc3c2CC(C)(C)CC3=O)c1 | active: 35% |
| O=C(Nc1ccc(F)cc1F)C(Cc1ccccc1)N1Cc2ccccc2C1=O (stereo not given) | active: -4% |
| O=C(CCC(=O)N1CC2CCCN2c2ccccc21)NCc1cccc(Cl)c1 (stereo not given) | active: 37% |
| COc1cc2c(=O)n(Cc3ccccc3Cl)c(=O)n(CC(=O)Nc3ccccc3)c2cc1OC | inactive: 75% |
| Cc1ccc(C(=O)n2nc(-c3ccco3)nc2NCc2cccs2)cc1 | inactive: 69% |
| CC(C)CNS(=O)(=O)c1ccccc1 | inactive: 86% |
| CC(C)Nc1nc(NC(C)C)nc(N(C)C)n1 | inactive: 77% |
| CCCCn1cc2c(c1-c1ccccc1Br)c(=O)n(C)c(=O)n2C | inactive: 76% |
| Cc1nc(N2CCOCC2)c2c(C(=O)NCCc3ccccc3)c(C)oc2n1 | active: 0% |
| CCc1nn(C(C)C(=O)N2CCN(c3cccc(C(F)(F)F)c3)CC2)c(=O)c2cc3occc3n12 (stereo not given) | inactive: 73% |
| COC(=O)CNc1cccc(C(F)(F)F)c1 | inactive: 64% |
| COc1cc(OC)cc(-c2nc3nc(C)c(CCC(=O)Nc4ccc(F)cc4F)c(C)n3n2)c1 | inactive: 113% |
